The campaign covered roughly 300,000 compounds. About 22,000 (7.3%) were called active. This list was built around the results that the source calls inconclusive (neither active nor inactive); the mix of calls is not that of the screen. No stated cut-off is given here; in the data, active means activity score below about -60%; inconclusive means mostly about -28% to -61%; inactive means positive scores.
Assay: Activators via SNCA 5'UTR binding, MLPCN (AID 1814)
Conditions: alpha-synuclein 5'UTR reporter, activators screen; active compounds read low; tested at 7.5 µM

SMILES | activity score
O=C(OCCOc1ccccc1Cl)c1ccc(-n2cnnn2)cc1 | inconclusive: -28.2%
FC(F)Sc1ccc(NC(=S)NCc2ccccc2)cc1 | active: -70.3%
COc1ccc(Cl)cc1-n1c(C)ccc1C | inconclusive: -57.7%
CC(C)c1ccc(-c2cc(C(=O)N3N=C(C(F)F)CC3(O)C(F)F)c3ccccc3n2)cc1 (stereo unspecified) | active: -166%
O=C(NNc1nc(-c2ccccc2)cs1)c1ccc(F)cc1 | inactive: 76.2%
CCCCn1c(CN2CCN(c3ccccc3)CC2)nc2c1c(=O)n(C)c(=O)n2C | inconclusive: -31.1%
Cn1c(SCC(=O)c2ccccc2)nnc1C1CC1 | inconclusive: -49.7%
COc1ccc(OC)c(Cc2nnc(CCC(=O)N3CCN(C4CCCC4)CC3)o2)c1 | active: -74%
C/C(=N\NC(=O)c1ccc(F)cc1)c1cccc(NC(=O)c2ccco2)c1 | inconclusive: -49.6%
COc1ccc(/C=C2\SC(=S)N(CCC(=O)NC3C=CS(=O)(=O)C3)C2=O)cc1 (stereo unspecified) | inactive: 66.4%
Cc1cccc(C(=O)Nc2nnc(SCC(=O)Nc3ccc4c(c3)oc3ccccc34)s2)c1 | inconclusive: -48.9%
O=C(N/N=C/c1cc(Br)c(Br)s1)c1ccncc1 | inactive: 84.3%
Cc1ccc(C(=O)NNC2CC(=O)N(c3ccc4c(c3)OCCO4)C2=O)cc1 (stereo unspecified) | inconclusive: -54.7%
COc1ccc(CCNC(=O)c2cc3c(=O)n4ccccc4nc3n(CCCN3CCOCC3)c2=N)cc1 | inconclusive: -38.5%
C/C(=N\NC(=O)c1ccc2c(c1)OCCO2)c1ccccc1 | inactive: 72.9%
COc1cccc(S(=O)(=O)Nc2ccc3c(c2)OCCO3)c1 | inconclusive: -59.8%
C/C(=N\NC(=O)Cc1cccn1C)c1ccc2ccccc2c1 | inconclusive: -56.7%
C/C(N)=C(/C#N)C(=O)COC(=O)CNC(=O)c1ccc(Cl)cc1Cl | inconclusive: -46.5%
Oc1c(N=NC(=S)Nc2ccccc2F)c2ccccc2n1Cc1ccccc1 | inactive: 71.7%
O=C(NC1=C(Nc2ccc(F)cc2)C(=O)c2ccccc2C1=O)c1ccc(Cl)cc1 | inconclusive: -57.4%
COc1cc(NC(=O)C(C)C)ccc1NC(=O)c1cc2ccccc2o1 | active: -166%
COCCCNC(=S)NC(=O)c1ccc([N+](=O)[O-])cc1 | inconclusive: -51.4%
Cc1ccc2nc(/C(C#N)=C\c3ccc(Oc4ccc(C(F)(F)F)cc4[N+](=O)[O-])cc3)[nH]c2c1 | inconclusive: -39.2%

SMILES | activity score
Cc1ccc(OCCOc2ccc(Br)cc2/C=N\NC(N)=O)cc1 | inconclusive: -58.3%
COc1ccc(NC(=O)CSc2nnc(C3CC3)n2N)cc1 | inconclusive: -46.4%
O=C(NNc1nc2cc3c(cc2s1)OCO3)c1ccccc1 | inconclusive: -57.6%
Fc1ccccc1Nc1nc(NCc2ccco2)nc(N2CCOCC2)n1 | inconclusive: -30%
O=C(O)c1cccc(NC(=S)N/N=C/c2cccc(O)c2)c1 | inactive: 57.7%
O=S(=O)(N/N=C1/CC(c2ccccc2)Oc2ccccc21)c1ccc(Br)cc1 (stereo unspecified) | inconclusive: -50.7%
CCCCc1nc2cc(C(=O)N3CCC(OC)CC3)ccc2o1 | inconclusive: -59%
CCCCN(C)C(=O)CCCc1c[nH]c2ccccc12 | inconclusive: -58.9%
CCOc1ccc2c(c1)C(C)=CC(C)(C)N2S(=O)(=O)c1ccc(NC(C)=O)cc1 | inactive: 69.7%
Cc1csc(Nc2ccccc2C(F)(F)F)n1 | inconclusive: -42.4%
Cc1c(CC(=O)N[C@H](C(=O)O)C(C)C)c(=O)oc2cc3c(cc12)CCC(C)(C)O3 | active: -110%
COc1ccc2cc(-c3[nH]ncc3CNCCn3nc(C)cc3C)ccc2c1 | inconclusive: -55.3%
Cc1cc(C(=O)N/N=C/C=C/c2ccc3c(c2)OCO3)n[nH]1 | inconclusive: -50%
Cn1cccc1C(=O)OCC(=O)NC(=O)NC1CCCCC1 | inconclusive: -48.3%
O=C(c1coc2ccc(O)cc12)C1CC1 | inconclusive: -56.6%
O=C(NC12CC3CC(CC(C3)C1)C2)c1ccc(-c2ccccc2Cl)o1 | active: -220%
Cc1nn(Cc2ccccc2Cl)c(Cl)c1C(=O)NCCc1ccccc1 | inconclusive: -53.8%
N#C/C(=C\c1ccc(O)c(O)c1)C(=O)N1CCCC1 | inconclusive: -45.3%
Cc1nc(-c2ccccc2)sc1-c1n[nH]c(=S)n1C | inconclusive: -51.3%
COc1ccc(C(=O)Nc2ccc(Cl)c(Cl)c2)c(OC)n1 | active: -104%
c1ccc(CSc2ccc(-c3ccccn3)nn2)cc1 | inconclusive: -56.2%
O=C(Nc1nc(-c2ccccc2)cs1)c1ccc(=O)[nH]c1 | inconclusive: -33.5%
NS(=O)(=O)c1ccc(NC(=O)Nc2ccc(Cl)cc2)cc1 | inconclusive: -48.3%

SMILES | activity score
Cc1ccccc1C(=O)Nc1nnc(-c2ccco2)o1 | inconclusive: -44.2%
O=[N+]([O-])c1cc(/C=N/n2c(-c3ccncc3)n[nH]c2=S)ccc1Cl | inconclusive: -52%
Cc1cccc(OCCCn2c(CO)nc3ccccc32)c1 | active: -84.4%
O=C(Nc1ccc(-c2nc3ncccc3o2)cc1)c1ccc([N+](=O)[O-])o1 | inactive: 100%
COCCn1c(C)cc(C(=O)CSc2nc3ccccc3s2)c1C | inactive: 53.1%
CCCOc1ccc(/C=C/C(=O)Nc2ccc([N+](=O)[O-])cc2)cc1 | inactive: 68%
CN1Cc2c(N3CCOCC3)nc3sc(C(=O)c4ccc(Br)cc4)c(N)c3c2CC1(C)C | inactive: 105%
COc1ccccc1N=C(C)C1=C(O)CC(c2ccccc2)CC1=O (stereo unspecified) | inactive: 122%
COc1cccc2sc(N(CCCN(C)C)C(=O)c3ccc(S(=O)(=O)N4CCCc5ccccc54)cc3)nc12 | inactive: 64.1%
COc1ccc(N(CC(=O)Nc2cccc(SC)c2)S(C)(=O)=O)cc1 | inconclusive: -50.9%
Cc1ccc(CC2CC(=O)N(c3nc4ccccc4s3)C2=O)cc1 (stereo unspecified) | inconclusive: -51%
Cc1ccsc1/C=C(\CC(=O)O)c1nc2ccccc2o1 | inconclusive: -56.8%
O=C(NC(=S)NNC(=O)[C@H]1C[C@@H]1c1ccccc1)c1cccc(F)c1 | inactive: 67.2%
Cc1ccc2nc(NCc3ccco3)c(C=NCc3ccco3)c(=O)n2c1 | inconclusive: -61.4%
Cc1ccc(CNc2ncnc(N)c2[N+](=O)[O-])cc1 | inconclusive: -36.8%
COc1ccc(N2CC(O)=C(c3nc(C)cs3)C2=N)cc1 | inconclusive: -59.8%
COc1cc(NC(=S)NC(=O)c2cccs2)ccc1NC(=O)C(C)C | inconclusive: -52.6%
COc1ccc(/C(N)=C/C(=O)C(C)(C)C)cc1 | active: -97.8%
O=C(NC1CC1)c1ccc(CSCc2ccccc2Cl)o1 | inconclusive: -38.6%
COc1ccc(C2CC(c3ccccc3)=NN2C(=O)COC(=O)c2nc3nccc(C)n3n2)cc1 (stereo unspecified) | inconclusive: -54.5%
CC1SC(=Nc2ccccc2)N(S(=O)(=O)c2ccccc2)C1=O (stereo unspecified) | inconclusive: -26.7%
O=C(N/N=C/c1cccc([N+](=O)[O-])c1)c1nc2ccccc2c(=O)[nH]1 | inconclusive: -52.8%
CC(Cl)C(=O)c1ccc2c(c1)CCN2C(=O)C1CC1 (stereo unspecified) | inconclusive: -53.8%

SMILES | activity score
CCOC(=O)c1ccc(Nc2cnc3ccccc3n2)cc1 | active: -176%
CN(C)c1ccc(/C=N/Nc2nc3ccccc3o2)cc1 | inactive: 67%
CCOC(=O)C1(Cc2cccc(OC)c2)CCCN(C(=O)c2cc(CC(C)C)[nH]n2)C1 (stereo unspecified) | active: -118%
COc1cccc2cc(CC(=O)c3ccc(C)cc3C)c(=O)oc12 | active: -185%
FC(F)C(F)(F)c1cc(-c2ccccc2)n[nH]1 | inconclusive: -49.5%
COCCn1c(C)cc(C(=O)CSc2nnc(C)s2)c1C | inactive: 99.6%
Cc1ccc(OCc2nc(-c3cccs3)no2)c([N+](=O)[O-])c1 | active: -64.2%
Nc1nc(Nc2ccc(Cl)cc2)nc(NCc2ccco2)c1[N+](=O)[O-] | active: -74.6%
CCCCNC(=O)CO/N=C(\C)c1cc2ccccc2o1 | inconclusive: -50.4%
CC(C)(C)c1nc(NC(=O)Nc2ccccc2)sc1Br | inconclusive: -57.8%
Cc1ccc2c(c1)sc(=NC(=O)c1cccs1)n2C | inactive: 85.4%
O=C(O)/C=C\C(=O)Nc1cccc(NC(=O)c2ccccc2)c1 | inconclusive: -48.1%
Cn1c(SCC(=O)c2ccc3c(c2)OCCO3)nnc1C1CC1 | inconclusive: -54.4%
COc1ccc2c(c1)CCc1c(C(=O)NC3CCCCC3)noc1-2 | inconclusive: -60.9%
NC(=O)c1c(NC(=O)c2ccc([N+](=O)[O-])o2)sc2c1CCCC2 | inactive: 95.3%
O=C(CSc1nc(O)cc(=O)n1-c1ccccc1)Nc1nc2ccccc2s1 | inconclusive: -58%
CC(C)N1C(=O)S/C(=C/c2ccc3c(c2)n(C)c(=O)n3C)C1=O | inconclusive: -50.6%
CC(C)(C)c1ccc(-c2nnc3sc(-c4ccccn4)nn23)cc1 | inconclusive: -56.3%
O=C(/C=C/c1c(F)cccc1Cl)NCc1ccco1 | inconclusive: -53.7%
CC(C)(C)c1ccc(C(=O)NNC(=O)Cc2ccccc2)cc1 | active: -84.3%
Nc1nonc1-c1nc2ccccc2n1CC(=O)N/N=C\c1ccc(-c2ccc(Cl)cc2)o1 | inconclusive: -44.9%
COC(=O)CCCNC(=O)CCc1nnc(-c2ccc(-c3ccccc3)cc2)o1 | inactive: 76.9%

Reference: PubChem BioAssay AID1814 (Broad Institute, 2009)
